Data reported in PubChem BioAssay AID488969 (Vanderbilt High Throughput Screening Facility, 2010).
Whole data set: some 110,000 compounds, median “z-score” near -0.1, cut for the highest 2% near 2. Some of the results follow.

The molecules below were run against Metabotropic glutamate receptor 8 (Rattus norvegicus) (UniProt P70579) (assay: mGluR8 Gi/Go-coupled signaling modulation – cell-based, rat, thallium flux, HTS, primary screen (AID 488969)). Details: HEK293 rat mGluR8, GIRK (G protein-gated inwardly rectifying potassium channel) thallium flux, FluoZin2; at 10 µM; stronger effect = higher value; submaximal glutamate (EC20) added with thallium.
Sequence of UniProt P70579 (P70579 whole entry, looked up): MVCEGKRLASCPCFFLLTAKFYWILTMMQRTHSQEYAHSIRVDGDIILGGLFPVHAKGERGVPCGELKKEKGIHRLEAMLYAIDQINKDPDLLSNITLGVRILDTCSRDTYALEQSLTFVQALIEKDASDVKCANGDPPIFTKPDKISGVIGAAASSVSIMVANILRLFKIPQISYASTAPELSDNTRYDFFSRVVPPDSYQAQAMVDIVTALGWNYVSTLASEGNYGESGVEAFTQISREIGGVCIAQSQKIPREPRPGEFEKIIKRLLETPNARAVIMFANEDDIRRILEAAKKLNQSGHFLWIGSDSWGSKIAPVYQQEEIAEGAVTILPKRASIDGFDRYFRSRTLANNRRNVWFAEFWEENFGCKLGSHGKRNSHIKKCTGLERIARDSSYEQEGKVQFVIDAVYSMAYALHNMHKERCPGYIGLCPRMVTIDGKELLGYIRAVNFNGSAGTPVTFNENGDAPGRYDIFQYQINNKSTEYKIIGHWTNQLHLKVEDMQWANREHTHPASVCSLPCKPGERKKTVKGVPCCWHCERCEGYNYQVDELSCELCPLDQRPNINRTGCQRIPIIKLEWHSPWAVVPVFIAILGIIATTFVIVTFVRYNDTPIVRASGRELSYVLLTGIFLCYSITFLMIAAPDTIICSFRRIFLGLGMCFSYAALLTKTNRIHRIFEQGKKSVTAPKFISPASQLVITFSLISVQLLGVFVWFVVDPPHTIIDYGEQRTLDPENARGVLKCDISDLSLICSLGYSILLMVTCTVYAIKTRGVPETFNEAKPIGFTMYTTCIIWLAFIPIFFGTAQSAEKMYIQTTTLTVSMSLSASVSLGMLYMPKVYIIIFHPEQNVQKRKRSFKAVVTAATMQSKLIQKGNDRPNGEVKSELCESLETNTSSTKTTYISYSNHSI
`c1ccc2c(N3CCCCC3)nc(N3CCCC3)nc2c1` showed a z-score of 0.2. `C=CCOc1ccc(CNn2cn[nH]c2=S)cc1OCC` gave a z-score of -0.31. Work on `C=CCn1c(COc2ccc(Cl)cc2)nnc1SCC(=O)N1CC(=O)Nc2ccccc21` yielded a z-score of -0.735. `O=[N+]([O-])c1cc(C(F)(F)F)ccc1NCCCCNS(=O)(=O)c1ccc2ccccc2c1` showed a z-score of -0.124. `COc1ccc(S(=O)(=O)NCC(=O)N(CC(=O)NCC2CCCO2)c2ccccc2C)cc1` (stereo not drawn) gave a z-score of 0.0029. Work on `O=C(COc1ccc(S(=O)(=O)N2CCCCC2)cc1)NCc1ccncc1` yielded a z-score of 0.404. Molecule `Cc1ccccc1NC(=O)Cn1c(O)c(N=NC(=O)c2ccccc2O)c2ccccc21` has a z-score of 0.394. In the case of `Clc1ccc(-c2nnsc2SCc2ccccc2)cc1`, the z-score is reported as -0.297. `Cn1cnnc1SCC(=O)c1ccc2c(c1)CCCC2` was tested, and the z-score was -0.236. `CCn1cc(C(=O)NC(C)C23CC4CC(CC(C4)C2)C3)cn1` (stereo not drawn) showed a z-score of -0.0189. Molecule `Cc1cccc(C2Nc3ccccc3C(=O)N2c2ccccc2)n1` (stereo not drawn) has a z-score of 0.027. `COc1ccccc1CNC(=O)CCN1C(=O)COc2ccc(C)cc21` gave a z-score of -0.114. `CC1(C)CC(=O)C=C(Nc2ccccc2F)C1` gave a z-score of 0.217. With `CCOC(=O)C1C(c2ccc(O)c(OCC)c2)NC(=S)NC1(O)C(F)(F)F` (stereo not drawn) the z-score was -0.494. `COc1ccc(Cc2nnnn2CC(=O)O)cc1` gave a z-score of 0.0452. In the case of `O=P(OCC1CC1)(c1ccccc1)c1ccccc1`, the z-score is reported as -0.249. `Cc1sc(NC(=O)c2ccco2)nc1-c1ccccc1` gave a z-score of 0.0477. `O=[N+]([O-])c1cc(C(F)(F)F)cc([N+](=O)[O-])c1NN=C1CCCCC1` showed a z-score of 0.371. `Cc1cc(C)c(NC(=O)COc2nc3ccccc3nc2C)c(C)c1` gave a z-score of -0.157. With `O=C(Nc1ccc(C2CC2(Cl)Cl)cc1)c1ccccc1Br` (stereo not drawn) the z-score was -0.341. `C=CCOn1c(=O)c(-c2ccc(OC)c(OC)c2)[n+]([O-])c2ccccc21` was tested, and the z-score was -0.224. For `O=C(Nc1nccs1)c1ccc(S(=O)(=O)N2CCCCC2)cc1`, the z-score was -0.0844. Molecule `O=C(COc1ccccc1)Nc1nonc1NC(=O)COc1ccccc1` has a z-score of -0.222. `CCOC(=O)C1=C(Cc2ccc(OC)cc2)C(=O)c2ccccc2C1=O` showed a z-score of 0.55. `Cc1nc(C(=O)N(C)C)nn1-c1cc(Cl)cc(Cl)c1` was tested, and the z-score was -0.0145. `COc1ccc(NCc2nnc(SCC(=O)c3ccc(OC)cc3)o2)cc1` gave a z-score of -0.0938. With `O=c1cc(-c2ccccc2F)nc(-c2ccccc2F)o1` the z-score was -0.704. In the case of `CCOc1cccc2c1OC1(C)CC2NC(=O)N1c1ccc(OC)cc1` (stereo not drawn), the z-score is reported as 0.492. `Cc1ccc2nc(-c3ccc(NS(=O)(=O)c4ccc(F)cc4)cc3)sc2c1` showed a z-score of -0.296. `COc1ccc(Br)cc1C1SCCN1S(C)(=O)=O` (stereo not drawn) gave a z-score of 0.00324. With `N#CC[n+]1cc(-c2ccc(Cl)cc2)n2c1CCC2` the z-score was -0.315. For `O=C(CCc1nc(-c2cccs2)no1)NCc1ccc(F)cc1Cl`, the z-score was -0.0321. Molecule `CC(=O)Nc1cc(C(=O)OCC(=O)c2ccccc2)ccc1C` has a z-score of -0.309. `CSc1nc(C)cc(C)c1C#N` gave a z-score of 0.211. `Cc1c(NC(=O)/C(C#N)=C/c2c(Oc3ccccc3)nc3ccccn3c2=O)c(=O)n(-c2ccccc2)n1C` showed a z-score of 1.16. `CC(C)c1ccc(-c2c(C#N)c(N)nc(SCC(=O)N3CCCCCC3)c2C#N)cc1` was tested, and the z-score was -0.612. For `O=[N+]([O-])c1ccc(N2CCOCC2)cc1SCc1ccco1`, the z-score was -0.0137. Work on `Cc1cc(C)c(NC(=O)CCCN2CCOCC2)c(C)c1` yielded a z-score of -0.0686. Molecule `CN(C)c1nc(-c2ccccc2)c2cnn(Cc3ccccc3)c2n1` has a z-score of -0.028. Work on `C=CCn1c(SCC(=O)Nc2cccnc2Cl)nnc1-c1ccc(Cl)cc1` yielded a z-score of -1.15. In the case of `CCCCCc1nc2c(=O)n(C)c3ccccc3c2o1`, the z-score is reported as -1.57. With `N=C1C(c2nc3ccccc3s2)=C(O)CN1Cc1ccco1` the z-score was -0.323. With `Cc1ccc(S(=O)(=O)NCc2ccc3c(c2)cc(C)n3C)cc1` the z-score was 0.206. With `CCCC1(C(=O)OCC)NC(c2ccc(N(C)C)cc2)C2C(=O)N(c3ccc4c(c3)OCCO4)C(=O)C21` (stereo not drawn) the z-score was 0.158. In the case of `Cc1cc(C)cc(NC(=O)/C(C#N)=C/c2cn(CC(=O)NCc3ccco3)c3ccccc23)c1`, the z-score is reported as 0.00755. For `Cc1cc(NC(=O)C(=O)NCCN2CCN(C(=O)c3cccs3)CC2)ccc1Br`, the z-score was -0.64. With `CCCCCCCCCS(=O)(=O)N/N=C/c1cccc([N+](=O)[O-])c1` the z-score was -0.331. With `CCSc1nnc(N(CCC#N)CCC#N)s1` the z-score was -0.182. Work on `NC(=O)C1CCN(S(=O)(=O)c2cccc(C(=O)O)c2)CC1` yielded a z-score of -0.312. `Cc1cc(C2=NNC(=NC3CC3)SC2)c(C)n1-c1ccccc1F` gave a z-score of -0.122. `COc1ccccc1NC(=O)C(=O)N1N=C(C(C)C)CC1(O)C(F)(F)F` (stereo not drawn) was tested, and the z-score was 0.117. `CCOc1cc(CNCCc2ccccc2)ccc1OCC(=O)NC(C)(C)C` was tested, and the z-score was 0.17. For `COc1ccc(NC(=S)Nc2ccccc2)cn1`, the z-score was -0.179. `COc1ccc(/C=C2\CCOC2=O)cc1` was tested, and the z-score was 0.296. For `Cc1ccc(S(=O)(=O)NN2C(=O)c3ccccc3NC2(C)C)cc1`, the z-score was -0.0651. For `CNC(=O)C(=O)NCC1OCCN1S(=O)(=O)c1ccc([N+](=O)[O-])cc1` (stereo not drawn), the z-score was -0.156. In the case of `COc1ccccc1N1CCN(C(CNC(=O)c2ccc3c(c2)OCO3)c2cccnc2)CC1` (stereo not drawn), the z-score is reported as 0.0309. `Cc1ccc(C)c(OCCCC(=O)Nc2nccs2)c1` gave a z-score of -0.0356. With `COc1ccc(C(CC(=O)c2ccccc2)S(=O)(=O)c2ccccc2)cc1` (stereo not drawn) the z-score was -0.439. Molecule `Cc1cc(OCc2ccc(F)cc2)nc(-c2ccccc2O)n1` has a z-score of 0.498. Work on `COc1ccc(/C=C2\SC(=O)N(CC(=O)NNC(=O)c3ccccc3O)C2=O)cc1OC` yielded a z-score of -0.594. Work on `CC(=O)c1cccc(NC(=O)N2CCN(S(C)(=O)=O)CC2)c1` yielded a z-score of 0.391. `CCC(C)Oc1cccc(C(=O)Nc2ccccc2N2CCOCC2)c1` (stereo not drawn) was tested, and the z-score was -0.605. `CC(=O)OC(C)(C)C#CCN1CCCC1` showed a z-score of -0.000695. In the case of `COc1ccc(/C=N/OCC(=O)Nc2nc3ccccc3s2)cc1`, the z-score is reported as -0.132. `O=C(N/N=C/C=C/c1ccccc1)c1ccc(Br)cc1` was tested, and the z-score was 0.2. With `Cc1cc(Cl)ccc1NC(=S)N1CCC(C(N)=O)(N2CCCCC2)CC1` the z-score was -0.126. With `COc1cccc(C2(O)CCN(C(=O)Cc3cccnc3)CC2)c1` the z-score was 0.759. Molecule `Nc1ccccc1C(=O)NCc1ccccc1` has a z-score of 0.0156. Work on `Cc1cc(C)nc(SCC(=O)Nc2nc(-c3ccccc3)c(-c3ccccc3)o2)n1` yielded a z-score of -0.522. Molecule `CCOc1c(Cl)cc(CNC(C)(C)CC(C)(C)C)cc1OC` has a z-score of -0.232. With `Cc1cc(C(=O)O)ccc1-n1c(C)ccc1C` the z-score was 0.208. `COc1ccc(N2CCN(Cc3nc4ccccc4n3C)CC2)cc1` gave a z-score of -0.258. Work on `COc1ccc(N=C/C=C2\C=C(c3ccccc3)OC(C)(C)O2)cc1` yielded a z-score of -0.461. Work on `c1ccc(-c2nnc(N3CCN(c4ccccn4)CC3)c3ccccc23)cc1` yielded a z-score of -1.64. With `Cc1nnc(SCC(=O)Nc2nnc(SCc3cccc(Br)c3)s2)s1` the z-score was 0.231. With `O=c1ccn(-c2cccc(C(F)(F)F)c2)nc1-c1ccn(-c2ccccc2)n1` the z-score was -0.401. Molecule `COc1ccc(N2CCN(c3oc(-c4ccco4)nc3C#N)CC2)cc1` has a z-score of -1.11. Work on `CCOc1cc(/C=C2/C(=O)N(c3ccccc3)N=C2C)ccc1OC(=O)c1cccs1` yielded a z-score of -0.152. In the case of `S=C(NCc1ccccc1Cl)NC1CCCC1`, the z-score is reported as 0.0412. Molecule `CC(C)(C)c1ccc(C(=O)N2CCC(C(=O)NCc3ccncc3)CC2)cc1` has a z-score of -0.0266. With `c1ccc(-c2csc(N3CCOCC3)n2)cc1` the z-score was 1.33. `COc1cc(C(=O)N[C@H](C(=O)NC(C)C23CC4CC(CC(C4)C2)C3)C(C)C)cc(OC)c1OC` (stereo partly drawn) gave a z-score of -0.125. `CCCCSc1nc(C)cc(SCC(=O)N/N=C/c2cccc(OC)c2O)n1` was tested, and the z-score was -0.337. For `COC(=O)c1sc(S(=O)(=O)Nc2ccc(Br)cc2)c(C(=O)OC)c1C`, the z-score was -0.105. `Cc1nnsc1C(=O)N/N=C/c1ccc2ccccc2c1O` was tested, and the z-score was -0.567. For `CN(C)C(=O)NC(O)C(Cl)Cl` (stereo not drawn), the z-score was 0.35. `COc1ccc2[nH]c(=O)c(CN(C(=O)c3ccccn3)c3ccccc3)cc2c1` was tested, and the z-score was -0.101. With `Cc1cc(SC(C)C(=O)Nc2c(C)n(C)n(-c3ccccc3)c2=O)nc2ccccc12` (stereo not drawn) the z-score was 0.274. `c1coc(-c2nc3nc4ccccc4n3nc2-c2ccco2)c1` was tested, and the z-score was -0.582. In the case of `CN(CC1CCCO1)S(=O)(=O)c1ccc(C(=O)Nc2nc3cc4c(cc3s2)OCO4)cc1` (stereo not drawn), the z-score is reported as -0.166. For `CCOC(=O)C(=O)Nc1ccccc1C(=O)NC(C)C`, the z-score was -0.286. With `O=C(CSc1nc2ccccc2s1)CSc1nc2ccccc2s1` the z-score was -0.46. `COc1ccc(/C=C2/SC(=S)N(n3c(C)ccc3C)C2=O)cc1` was tested, and the z-score was 1.14. In the case of `Nc1c(Cl)ncnc1N/N=C/c1ccc2ccccc2n1`, the z-score is reported as 0.811. Work on `CCCCN(CC)Cc1ccc(CNC(=O)Nc2ccccc2)o1` yielded a z-score of 1.09. Molecule `NNC(=O)CSc1c(-c2cccs2)[nH]c2ccccc12` has a z-score of -0.272. With `O=C(Nc1ccc(Cl)cn1)c1ccc(COCC(F)(F)C(F)F)o1` the z-score was -0.376. In the case of `CNc1cc(CSC)nc(SCc2ccc(Cl)cc2Cl)n1`, the z-score is reported as -0.147. In the case of `Cc1ccc2nc(SCC(=O)Nc3ccccc3N3CCOCC3)c(C#N)cc2c1`, the z-score is reported as -0.168. `COc1cccc(/C=N/Nc2ncnc(N)c2[N+](=O)[O-])c1OC` showed a z-score of 0.175. `COc1ccccc1N1CCN(C(=O)CC2NC3CCCCC3NC2=O)CC1` (stereo not drawn) showed a z-score of -0.162. Work on `CCc1cc(C(=O)Nc2ccc(C)cc2Br)cs1` yielded a z-score of -1.35. In the case of `Cc1[nH]c2ccccc2c1/C=C(\C#N)S(=O)(=O)c1ccccc1`, the z-score is reported as -0.0303. With `CCN(CC)CCCN1C(=O)c2oc3ccccc3c(=O)c2C1c1cccnc1` (stereo not drawn) the z-score was 0.402. Work on `Cc1cc(C(=O)N2CCCCCC2)cs1` yielded a z-score of -0.0614. With `COc1ccc(OC)c(CN2CCN(C(=O)c3cccc4ccccc34)CC2)c1` the z-score was -0.279. For `COc1ccc(-c2cc(C(F)(F)F)nc(SCC(=O)Nc3cc(C)on3)n2)cc1`, the z-score was 0.357. `CN(C(=O)COC(=O)C1CCN(S(=O)(=O)c2cccs2)CC1)C1CCS(=O)(=O)C1` (stereo not drawn) gave a z-score of 0.776. `COC(=O)c1[nH]c2cc(OC)c(OC)cc2c1NC(=O)Oc1ccccc1` showed a z-score of -0.318. `O=C1[C@@H]2C(c3ccccc3Cl)=NO[C@@H]2C(=O)N1Cc1ccccc1` gave a z-score of 0.171. In the case of `OCCN(CC(O)COc1ccccc1)CC(O)Cn1ccc2ccccc21` (stereo not drawn), the z-score is reported as 0.0905. With `Cc1ccc(OCc2nnc(NC(=O)OCC(C)C)s2)cc1` the z-score was -0.0417.
